From the supplement of paper PMC6609913
Where a name gives a salt, the structure may show the parent alone. ± gives the standard deviation of the averaged measurements. In all, about 1,300 compounds were measured (“normalised cell viability”: median about 1, lowest 2% from about 0.15 on). Some of the results follow.

System: V-C8 + BRCA2 (BRCA2-proficient hamster cells)
Experiment: normalised cell viability (fraction of plate median); higher = more viable cells (less toxic)
Details: 5 µM
Summary of the method: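 Library drugs, held as 10 mM stocks in DMSO, were diluted to 5 μM in 100 μl medium and added to 96-well plates of V-C8 hamster cells, either lacking BRCA2 or with BRCA2 restored, 24 h after seeding. Plates ran for 3 days (screen 1) or 6 days (screen 2), alongside solvent-only wells. Viability came from a resazurin readout, median-plate normalised, as the mean of triplicate wells.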

SMILES	normalised cell viability (treatment time: 3 days)	normalised cell viability (treatment time: 6 days)
CN[C@H](CC(C)C)C(=O)N[C@H]1C(=O)N[C@@H](CC(N)=O)C(=O)N[C@H]2C(=O)N[C@H]3C(=O)N[C@H](C(=O)N[C@H](C(=O)O)c4cc(O)cc(O)c4-c4cc3ccc4O)[C@H](O)c3ccc(c(Cl)c3)Oc3cc2cc(c3O[C@@H]2O[C@H](CO)[C@@H](O)[C@H](O)[C@H]2O[C@H]2C[C@](C)(N)[C@H](O)[C@H](C)O2)Oc2ccc(cc2Cl)[C@H]1O [Vancomycin hydrochloride]	0.177 ± 0.0067	0.17 ± 0.018
Cc1nnc(NS(=O)(=O)c2ccc(N)cc2)s1 [Sulfamethizole]	1.21 ± 0.32	1.05 ± 0.042
CCN1CCC[C@H]1CNC(=O)c1c(OC)ccc(Br)c1OC [Remoxipride Hydrochloride]	0.999 ± 0.016	1.05 ± 0.019
CCN1CCN(c2cc3c(cc2F)c(=O)c(C(=O)O)cn3C2CC2)CC1 [Enrofloxacin]	1 ± 0.021	1.03 ± 0.039
CC1CC(OC(=O)C(O)c2ccccc2)CC(C)(C)N1C (centres undefined) [Eucatropine hydrochloride]	0.865 ± 0.012	0.848 ± 0.093
Cc1cnc(NC(=O)C2=C(O)c3ccccc3S(=O)(=O)N2C)s1 [Meloxicam]	1.15 ± 0.053	1.04 ± 0.046
O=C(O)COC(=O)Cc1ccccc1Nc1c(Cl)cccc1Cl [Aceclofenac]	0.991 ± 0.016	0.987 ± 0.021
O=C(O)/C=C/c1ccc(Cn2ccnc2)cc1 [Ozagrel hydrochloride]	1.03 ± 0.04	0.995 ± 0.022
CCCc1nc(C)c2c(=O)nc(-c3cc(S(=O)(=O)N4CCN(CC)CC4)ccc3OCC)[nH]n12 [Vardenafil]	1.03 ± 0.025	1.012 ± 0.0041
Cc1cc(/C=C/c2ccc3cc(N(C)C)ccc3[n+]2C)c(C)n1-c1ccccc1 [Pyrvinium pamoate]	0.144 ± 0.0086	0.171 ± 0.014
CCn1nc(C(=O)O)c(=O)c2cc3c(cc21)OCO3 [Cinoxacin]	0.997 ± 0.054	0.918 ± 0.081
COCCOC(=O)C1=C(C)NC(C)=C(C(=O)OC/C=C/c2ccccc2)C1c1cccc([N+](=O)[O-])c1 (centres undefined) [Cilnidipine]	0.973 ± 0.054	0.969 ± 0.071
CCCCNc1ccc(C(=O)OCCOCCOCCOCCOCCOCCOCCOCCOCCOC)cc1 [Benzonatate]	0.956 ± 0.05	1 ± 0.024
COC(=O)Nc1nc2ccc(SC(C)C)cc2[nH]1 [Methiazole]	0.231 ± 0.016	0.245 ± 0.017
O=C(NCCO[N+](=O)[O-])c1cccnc1 [Nicorandil]	1.11 ± 0.072	1.11 ± 0.13
C=C1/C(=C\C=C2/CCC[C@]3(C)[C@@H]([C@H](C)/C=C/[C@@H](O)C4CC4)CC[C@@H]23)C[C@@H](O)C[C@@H]1O [Calcipotriene]	0.919 ± 0.033	0.918 ± 0.039
Cc1ccc(Cl)c(Nc2ccccc2C(=O)O)c1Cl [Meclofenamic acid sodium salt monohydrate]	1.02 ± 0.068	1.08 ± 0.084
CCN1CCN(C(=O)N[C@@H](C(=O)N[C@@H]2C(=O)N3C(C(=O)O)=C(CSc4nnnn4C)CS[C@H]23)c2ccc(O)cc2)C(=O)C1=O [Cefoperazone dihydrate]	0.936 ± 0.029	1.11 ± 0.07
CN(C)CCOc1ccc(/C(=C(/CCCl)c2ccccc2)c2ccccc2)cc1 [Toremifene]	0.822 ± 0.058	0.891 ± 0.027
CC(C(=O)O)c1ccc(N2Cc3ccccc3C2=O)cc1 (centres undefined) [Indoprofen]	1.03 ± 0.029	1.05 ± 0.14
CC1=Nc2ccc(Cl)cc2S(=O)(=O)N1 [Diazoxide]	0.911 ± 0.059	1 ± 0.086

SMILES	normalised cell viability (treatment time: 3 days)	normalised cell viability (treatment time: 6 days)
Oc1ccc(OCc2ccccc2)cc1 [Monobenzone]	0.572 ± 0.014	0.694 ± 0.019
C[C@H](O)C(=O)Nc1c(I)c(C(=O)NC(CO)CO)c(I)c(C(=O)NC(CO)CO)c1I [Iopamidol]	0.848 ± 0.081	1.06 ± 0.045
CC(C)CC(=O)N[C@H](C(=O)N[C@H](C(=O)N[C@@H](CC(C)C)[C@@H](O)CC(=O)N[C@@H](C)C(=O)N[C@@H](CC(C)C)[C@@H](O)CC(=O)O)C(C)C)C(C)C [Pepstatin A]	0.873 ± 0.026	0.965 ± 0.065
O=C1CC2(CCCC2)CC(=O)N1CCCCN1CCN(c2ncccn2)CC1 [Buspirone hydrochloride]	0.997 ± 0.038	1.083 ± 0.0083
CC[C@H]1OC(=O)[C@H](C)[C@@H](O[C@H]2C[C@@](C)(OC)[C@@H](O)[C@H](C)O2)[C@H](C)[C@@H](O[C@@H]2O[C@H](C)C[C@H](N(C)C)[C@H]2O)[C@](C)(O)C[C@@H](C)[C@@H]2N[C@@H](COCCOC)O[C@H]([C@H]2C)[C@]1(C)O [Dirithromycin]	1.06 ± 0.092	1.03 ± 0.082
Cc1cc(CC(=O)O)n(C)c1C(=O)c1ccc(Cl)cc1 [Zomepirac sodium salt]	1.06 ± 0.042	1.02 ± 0.017
CC1Cc2ccccc2N1NC(=O)c1ccc(Cl)c(S(N)(=O)=O)c1 (centres undefined) [Indapamide]	1 ± 0.029	0.996 ± 0.072
O=C(NCC(O)CO)c1c(I)c(C(=O)NCC(O)CO)c(I)c(N(CCO)C(=O)CO)c1I (centres undefined) [Ioversol]	0.892 ± 0.055	0.989 ± 0.03
CO/N=C(\C(=O)N[C@@H]1C(=O)N2C(C(=O)O)=C(COC(N)=O)CS[C@H]12)c1ccco1 [Cefuroxime sodium salt]	0.862 ± 0.052	0.957 ± 0.14
Nc1ccc(S(=O)(=O)Nc2ccnn2-c2ccccc2)cc1 [Sulfaphenazole]	1.07 ± 0.02	1.01 ± 0.041
O=C1OCCN1/N=C/c1ccc([N+](=O)[O-])o1 [Furazolidone]	0.67 ± 0.033	0.47 ± 0.052
O=S(=O)(O)c1cc(O)ccc1O [Ethamsylate]	0.991 ± 0.028	1.02 ± 0.048
c1ccc([C@H]2CN3CCSC3=N2)cc1 [Levamisole hydrochloride]	1.02 ± 0.039	1.01 ± 0.012
CCC(=O)O[C@]1(C(=O)CCl)[C@@H](C)C[C@H]2[C@@H]3CCC4=CC(=O)C=C[C@]4(C)[C@@]3(F)[C@@H](O)C[C@@]21C [Clobetasol propionate]	0.955 ± 0.027	1.06 ± 0.025
COc1ccc(C2CNC(=O)C2)cc1OC1CCCC1 (centres undefined) [Rolipram]	0.985 ± 0.037	1.15 ± 0.22
CCCNCC(O)COc1ccccc1C(=O)CCc1ccccc1 (centres undefined) [Propafenone hydrochloride]	0.749 ± 0.016	0.811 ± 0.05
COc1ccccc1OCC(O)CN1CCN(CC(=O)Nc2c(C)cccc2C)CC1 (centres undefined) [Ranolazine]	1.01 ± 0.066	1.06 ± 0.04
COc1cc([C@@H]2c3cc4c(cc3[C@@H](O[C@@H]3O[C@@H]5CO[C@@H](C)O[C@H]5[C@H](O)[C@H]3O)[C@H]3COC(=O)[C@H]23)OCO4)cc(OC)c1O [Etoposide]	0.141 ± 0.0097	0.15 ± 0.017
C[C@H]1C[C@@H]2[C@H]([C@@H](O)C[C@@]3(C)[C@H]2CC[C@]3(O)C(=O)CO)[C@@]2(C)C=CC(=O)C=C12 [Methylprednisolone, 6-alpha]	1.03 ± 0.055	1.02 ± 0.045
CC(C)NCC(O)c1ccc2ccccc2c1 (centres undefined) [Pronethalol hydrochloride]	0.972 ± 0.037	0.995 ± 0.041
Nc1nc2n[nH]nc2c(=O)[nH]1 [Azaguanine-8]	0.787 ± 0.038	0.841 ± 0.081

SMILES	normalised cell viability (treatment time: 3 days)	normalised cell viability (treatment time: 6 days)
CN(C)c1nc(N(C)C)nc(N(C)C)n1 [Altretamine]	1.07 ± 0.018	0.938 ± 0.047
Cc1c(N(C)CS(=O)(=O)O)c(=O)n(-c2ccccc2)n1C [Dipyrone]	0.91 ± 0.023	0.921 ± 0.066
O=c1[nH]c(=O)n(C2CCCO2)cc1F (centres undefined) [Tegafur]	0.967 ± 0.023	1.07 ± 0.012
CC(NCCC(c1ccccc1)c1ccccc1)c1ccccc1 (centres undefined) [Fendiline hydrochloride]	0.689 ± 0.027	0.75 ± 0.038
CCN(CC)CCc1nc(-c2ccccc2)no1 [Oxalamine citrate salt]	1 ± 0.018	1.01 ± 0.03
CC(C)NCC(O)c1ccc(O)c(O)c1 (single isomer, unassigned; (+)) [(+)-Isoproterenol (+)-bitartrate salt]	1 ± 0.048	1.05 ± 0.07
CNCC(O)c1ccc(OC(=O)C(C)(C)C)c(OC(=O)C(C)(C)C)c1 (centres undefined) [Dipivefrin hydrochloride]	0.968 ± 0.029	0.878 ± 0.089
CC(C)NC[C@@H](O)COc1cccc2ccccc12 [(R)-Propranolol hydrochloride]	1.01 ± 0.028	1.01 ± 0.056
O=c1oc2ccccc2c(O)c1Cc1c(O)c2ccccc2oc1=O [Dicumarol]	1.03 ± 0.02	1.11 ± 0.12
CN1CCN(CCCN2c3ccccc3Sc3ccc(Cl)cc32)CC1 [Prochlorperazine dimaleate]	0.899 ± 0.051	0.943 ± 0.092
Cc1nc(=O)c2cc(CN(C)c3ccc(C(=O)N[C@@H](CCC(=O)O)C(=O)O)s3)ccc2[nH]1 [Raltitrexed]	0.357 ± 0.025	0.351 ± 0.069
C[C@H](CCC(=O)O)[C@H]1CC[C@H]2[C@@H]3[C@H](O)C[C@@H]4C[C@H](O)CC[C@]4(C)[C@H]3CC[C@]12C [Chenodiol]	1.03 ± 0.068	1.12 ± 0.053
CN1CCN(c2c(F)cc3c(=O)c(C(=O)O)cn(CCF)c3c2F)CC1 [Fleroxacin]	1 ± 0.047	1.01 ± 0.019
NNc1nncc2ccccc12 [Hydralazine hydrochloride]	1.02 ± 0.021	0.971 ± 0.065
CC(=O)OCC(CCn1cnc2cnc(N)nc21)COC(C)=O [Famciclovir]	1.02 ± 0.012	1.006 ± 0.0063
COc1c2occc2c(OC)c2c(=O)cc(C)oc12 [Khellin]	1.015 ± 0.01	1.07 ± 0.11
Nc1cc(C(Cl)=C(Cl)Cl)c(S(N)(=O)=O)cc1S(N)(=O)=O [Clorsulon]	1.02 ± 0.07	1.09 ± 0.025
CC[C@H](C)C(=O)O[C@H]1CCC=C2C=C[C@H](C)[C@H](CC[C@@H]3C[C@@H](O)CC(=O)O3)[C@H]21 [Mevastatin]	0.246 ± 0.0034	0.23 ± 0.011
CO[C@@H]1[C@@H](OC(N)=O)[C@@H](O)[C@H](Oc2ccc3c(O)c(NC(=O)c4ccc(O)c(CC=C(C)C)c4)c(=O)oc3c2C)OC1(C)C [Novobiocin sodium salt]	1.05 ± 0.076	1.03 ± 0.061
CCN1CCN(C(=O)N[C@@H](C(=O)N[C@@H]2C(=O)N3[C@@H]2SC(C)(C)[C@@H]3C(=O)O)c2ccccc2)C(=O)C1=O [Piperacillin sodium salt]	1.11 ± 0.055	1.04 ± 0.1
